About 2,200 (0.71%) of roughly 310,000 compounds showed an effect of 50% or more. Effects have a minus sign here. Some of the results follow.
Molecular target: human ether-à-go-go-related gene (hERG) potassium channel (human, UniProt Q12809)
Assay: primary screen, population patch clamp on CHO cells stably expressing hERG

Chain of human ether-à-go-go-related gene (hERG) potassium channel (Q12809 whole entry, looked up): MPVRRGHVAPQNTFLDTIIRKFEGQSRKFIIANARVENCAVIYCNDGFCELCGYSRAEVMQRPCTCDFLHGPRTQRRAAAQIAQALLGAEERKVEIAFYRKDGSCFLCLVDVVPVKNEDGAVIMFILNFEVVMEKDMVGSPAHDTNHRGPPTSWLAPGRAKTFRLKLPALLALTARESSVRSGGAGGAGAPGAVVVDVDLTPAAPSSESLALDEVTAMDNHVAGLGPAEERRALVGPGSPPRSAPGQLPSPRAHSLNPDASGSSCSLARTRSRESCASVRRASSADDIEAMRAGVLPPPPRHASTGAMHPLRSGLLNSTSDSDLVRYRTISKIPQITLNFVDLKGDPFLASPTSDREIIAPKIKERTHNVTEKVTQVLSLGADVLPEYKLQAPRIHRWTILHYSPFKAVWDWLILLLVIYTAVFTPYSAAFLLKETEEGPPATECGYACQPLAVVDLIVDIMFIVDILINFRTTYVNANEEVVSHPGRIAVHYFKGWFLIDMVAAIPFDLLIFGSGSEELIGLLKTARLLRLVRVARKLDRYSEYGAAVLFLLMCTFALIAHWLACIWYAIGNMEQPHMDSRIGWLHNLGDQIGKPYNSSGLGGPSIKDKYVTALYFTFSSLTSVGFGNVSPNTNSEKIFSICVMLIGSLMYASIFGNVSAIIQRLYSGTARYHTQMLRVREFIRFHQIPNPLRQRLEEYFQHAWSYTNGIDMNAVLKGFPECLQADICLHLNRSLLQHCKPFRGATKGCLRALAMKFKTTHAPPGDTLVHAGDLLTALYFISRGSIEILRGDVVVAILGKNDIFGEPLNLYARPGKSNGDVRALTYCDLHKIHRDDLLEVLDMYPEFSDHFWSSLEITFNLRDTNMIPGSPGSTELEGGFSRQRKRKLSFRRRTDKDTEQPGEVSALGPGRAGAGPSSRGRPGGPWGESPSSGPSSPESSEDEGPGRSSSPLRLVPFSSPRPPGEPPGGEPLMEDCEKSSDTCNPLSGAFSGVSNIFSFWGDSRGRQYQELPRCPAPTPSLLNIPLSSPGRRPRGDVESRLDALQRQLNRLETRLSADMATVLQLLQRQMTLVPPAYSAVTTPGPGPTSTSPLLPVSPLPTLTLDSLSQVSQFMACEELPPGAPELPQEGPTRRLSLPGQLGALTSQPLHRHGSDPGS

SMILES | hERG current change (%, negative = inhibition) at 1uM [%]
CCOC(=O)C1=C(COC(=O)[C@@H]2CCCN2S(=O)(=O)c2ccc(C)cc2)NC(=O)NC1C (some centres unmarked) | 10.5
CC(C)C(NC(=O)c1ccc(F)cc1)C(=O)NCC1CCCO1 (centres unmarked) | 13.3
NC(N)=NC(=O)c1nc(Cl)c(N2CCCCCC2)nc1N | -11.6
CCOC(=O)c1cc(-c2cccnc2)nn1-c1ccccc1C | 7.62
CCOc1ccc(C(=O)OCC(=O)Nc2ccc3c(c2)OCCO3)cc1OC | 7.31
COc1ccccc1N1C(=O)C2C(C(=O)c3ccccc3)=NN(c3ccc(C)cc3)C2C1=O (centres unmarked) | -6.99
CCCS(=O)(=O)N1CCN(C(=O)c2ccc(-c3ccccc3)cc2)CC1 | -7.86
COc1cccc(CN(C)Cc2nc3cc(C(F)(F)F)ccc3c(=O)[nH]2)c1 | 11.6
CC(NS(=O)(=O)c1ccc2c(c1)OCCCO2)C(=O)O (centres unmarked) | 12.7
CCOc1ccc(S(=O)(=O)N(CC)CC(=O)NC2CCS(=O)(=O)C2)cc1 (centres unmarked) | 7.79
CCCCn1c(=O)c(C(=O)Nc2ccccc2C)c(O)c2ccccc21 | 16.2
CCCN(CCC)S(=O)(=O)c1ccc(C(=O)N2CCC(=O)c3ccccc32)cc1 | 16.9
COC(=O)c1cnc(N2CCCN(S(=O)(=O)c3ccccc3)CC2)nc1C(F)(F)F | 10.6
O=C(C1CC1)N1CCc2cc(S(=O)(=O)N3CCCc4ccccc43)ccc21 | 11.2
COc1ccc(S(=O)(=O)N(CC(=O)NCc2cccnc2)Cc2ccccc2)cc1 | -51.2
N#Cc1c(F)cccc1NCc1cccnc1 | 7.83
COc1ccc(/C=N\NC(=O)c2sc(N)nc2C)cc1OC | 8.97
COc1ccc(-c2csc(NC(=O)c3cccc(N4C(=O)CCC4=O)c3)n2)cc1OC | 11.1
COc1ccc(/C=N/NC(=O)Cn2cnc3ccccc3c2=O)cc1OC | 0.936
CN(C(=O)Nc1ccccc1)C1CCCc2ccccc21 (centres unmarked) | 10.9
CCOC(=O)CN=C/C(C(=O)Nc1nccs1)=C(/C)O | 17.5
O=C(Nc1ccc(F)cc1)NC1CCN(Cc2c(F)cccc2Cl)CC1 | 6.95
CC(=O)Nc1ccc(N2CCC(C)CC2)c([N+](=O)[O-])c1 | 7.46

SMILES | hERG current change (%, negative = inhibition) at 1uM [%]
Cc1ccccc1CCNC(=O)C1CCC(=O)N(C2CCCCCC2)C1 (centres unmarked) | 7.2
COc1cc(NC(=O)c2ccc(COCC(F)(F)F)o2)cc(OC)c1OC | -0.535
CCOc1cc(/C=C/C(=O)c2ccc3c(c2)OCCO3)ccc1OCC(=O)N(C)C | 15
Cc1c(C(=O)NCc2ccccn2)oc2ccc(S(=O)(=O)N3CCC4(CC3)OCCO4)cc12 | 2.47
Cc1ccc(NC(=S)NC2CCSc3ccccc32)cc1 (centres unmarked) | 12.3
COc1ccc(C(=O)O/N=C(\N)Cc2ccc(Cl)c(Cl)c2)cc1OC | 9.39
CC(C)(C)C(=O)Cn1c(=O)n(-c2ccc(F)cc2F)c(=O)c2sccc21 | 13.9
Cc1cccc(C)c1OCc1nnc(SCC(=O)Nc2nccs2)o1 | -2.37
Cc1ccc(C(=O)NCCC2=CCCCC2)cc1S(=O)(=O)N1CCOCC1 | 12.3
CC(CCO)Nc1nc2c([nH]1)c(=O)n(C)c(=O)n2C (centres unmarked) | 13.4
COc1ccc(C2=NN(C(=O)c3cccnc3)C(c3ccccc3)C2)cc1 (centres unmarked) | 7.81
COc1ccc(OC)c(C(=O)NC2CC(C)(C)Cc3c2cnn3-c2ccccc2)c1 (centres unmarked) | 10.9
O=C(CCCOc1ccc(Cl)cc1Cl)N/N=C/c1ccco1 | 6.7
Cc1cc(C)n(-c2nc3c(c(=O)[nH]c(=O)n3C)n2C(C)C)n1 | 17.5
O=C(N/N=C/c1ccccc1)c1ccc(-c2ccccc2)cc1 | 18.7
Cc1cc(NC(=O)/C=C/c2ccc(Cl)cc2)no1 | 11.3
Cc1ccc(NC(=O)c2cncc(Br)c2)c([N+](=O)[O-])c1 | 1.51
O=C(CN(c1ccc(F)cc1)S(=O)(=O)c1ccc2c(c1)OCCO2)NCc1ccccc1 | 6.06
COc1ccc(NC2CCCN(Cc3cccc4cnccc34)C2)cc1OC (centres unmarked) | 5.29
COc1cc(OCC(N)=O)cc(OC)c1OC | 7.48
O=C([O-])c1ccc(-n2nc(C(F)(F)F)cc2-c2cccs2)cc1.[Na+] | 10.3
O=C(Cn1c(=O)c(=O)n(Cc2ccccc2)c2ccc(Cl)cc21)Nc1ccc(F)cc1F | 13.1
CCCC(=O)NC(C)c1nc2ccccc2n1C (centres unmarked) | 7.33

SMILES | hERG current change (%, negative = inhibition) at 1uM [%]
COc1cccc(Cn2cccc(NC(=O)Nc3ccc(C#N)cc3)c2=O)c1 | 6.91
CCCCNC(=O)C1CCN(c2nc(C)cc(C)n2)CC1 | 14.5
CCOC(=O)CN(C(=O)CSc1nnc(Cc2ccccc2)n1-c1ccc(C)cc1)c1ccccc1 | -1.66
Cc1c(C(=O)NCCNc2ncc(C(F)(F)F)cc2Cl)cccc1[N+](=O)[O-] | 9.16
c1ccc2c(-n3cnnn3)cccc2c1 | 5.26
CCCCCOC(=O)Cc1c(O)c2ccccc2[nH]c1=O | 15.9
COc1cc(/C=C2\SC(=S)N(CC(=O)O)C2=O)ccc1OC(=O)c1ccco1 | 1.93
c1csc(-n2nc3ccccc3n2)c1 | -1.06
O=c1c2ccccc2nc(CSc2ncnc3nc[nH]c23)n1-c1ccccc1Cl | 14.5
CC1=NN(C(=O)c2cc(C)nn2C)C(O)(C(F)(F)F)C1 (centres unmarked) | 16.7
COc1ccc(-c2nnc(SCc3ncc(-c4ccccc4)o3)o2)cc1 | 9.13
COC(=O)c1sc(C(C)(C)C)cc1CS(=O)(=O)c1ccccn1 | 11.7
CCOC(=O)C(N)CSC1CC(=O)N(c2ccc(C(=O)OC)cc2)C1=O (centres unmarked) | 10.2
Cc1nnc(N/N=C/c2c[nH]c3ccccc23)[nH]c1=O | 5.73
NC(=O)NC(=O)COC(=O)c1cccc(NS(=O)(=O)/C=C/c2ccccc2)c1 | 2.21
CC1=NN(C(=O)c2ccccc2F)C(O)(c2ccc(Cl)cc2)C1 (centres unmarked) | 12.6
Cc1ccccc1C(=O)NNC(=O)/C=C\C(=O)O | -10.7
O=C(Nc1ccccc1F)c1coc(=O)c(Br)c1 | 3.91
Cc1ccc(-n2sc3ccccc3c2=O)cc1 | 19.3
CCCN1CNC(=S)N(c2cc(C)ccc2C)C1 | -0.38
COc1ccc(-c2[nH]nc3oc(=O)cc(C)c23)cc1 | 7.06
CC(=O)Nc1ccc(S(=O)(=O)N2CCC(C(=O)N[C@@H](C)C(=O)NC3CCCC3)CC2)cc1 | 26.7
CC(C)NC(=O)c1ccccc1S(=O)c1ccccc1C#N (centres unmarked) | 9.68

SMILES | hERG current change (%, negative = inhibition) at 1uM [%]
COC(=O)c1ccc(C2c3c(oc4ccc(Cl)cc4c3=O)C(=O)N2CCN2CCOCC2)cc1 (centres unmarked) | -0.385
CC[n+]1c(SC)ccc2cc(OC)ccc21.[O-][Cl+3]([O-])([O-])[O-] | 5.74
CCOC(=O)Nc1ccc2c(c1)nc(CN1CCN(C(C)=O)CC1)n2C | 9.62
C#CCNC(=O)C1=C[C@H](c2csc3ccccc23)[C@@H](CCCO)[C@H](OCC)O1 | 10
COc1ccccc1N1CCN(C(=O)CCNS(=O)(=O)c2cc(Br)cnc2N)CC1 | 8.39
CC(=O)Nc1cccc2c1C(=O)N(c1cccc(OC(C)=O)c1)C2=O | 11
O=C(O)CCCC(=O)Nc1cc([N+](=O)[O-])ccc1O | 5.64
COc1ccccc1OCCNC(=O)c1cccc(S(=O)(=O)N2CC(C)OC(C)C2)c1 (centres unmarked) | 6.51
COc1ccc(C2C(C(=O)NCc3ccco3)c3ccccc3C(=O)N2C)cc1 (centres unmarked) | 7.97
CCn1c(C)cc2c(c1=O)C(c1ccncc1)C(C#N)=C(N)O2 (centres unmarked) | 11.5
COc1cc(NC(=S)NC(=O)CCc2ccccc2)cc(OC)c1 | 5.06
CCOC(=O)c1ccc(N2C(=O)C(O)=C(C(C)=O)C2c2ccc(O)c(OC)c2)cc1 (centres unmarked) | 5.35
Cc1cc(N2CCN(C)CC2)nc2ccc(NC(=S)NC3CC3)cc12 | 6.33
O=C(CN1CCCC1)NC(c1ccccc1)c1ccccc1.O=C(O)C(=O)O | 2.57
COc1ccc(Br)cc1/C=N/n1nnnc1N | 9
O=c1[nH]c(CN2CCCCC2)nc2c1C1(CCCCC1)Cc1ccccc1-2 | 5.97
C=CCn1c(SCc2nc(N)nc(N3CCCCC3)n2)nnc1-c1ccco1 | 0.431
OCC#CC[N+]1(CC#Cc2ccccc2)CCCC1.[Br-] | 12.2
CC(C)CCNC(=O)c1onc(CSc2ccncc2)c1C(=O)NCCC(C)C | 2.53
Cc1ccc(SC(C)C(=O)Nc2cccnc2)cc1 (centres unmarked) | 8.26
